The full ranking holds about 33,000 sequences; the median of “E-score (-0.5 to 0.5)” is about -0.016, and the highest 2% start at about 0.32. The list shows a part of the results.
Biological target: T1, Stp1 (UniProt B3LFK1)
T1 sequence: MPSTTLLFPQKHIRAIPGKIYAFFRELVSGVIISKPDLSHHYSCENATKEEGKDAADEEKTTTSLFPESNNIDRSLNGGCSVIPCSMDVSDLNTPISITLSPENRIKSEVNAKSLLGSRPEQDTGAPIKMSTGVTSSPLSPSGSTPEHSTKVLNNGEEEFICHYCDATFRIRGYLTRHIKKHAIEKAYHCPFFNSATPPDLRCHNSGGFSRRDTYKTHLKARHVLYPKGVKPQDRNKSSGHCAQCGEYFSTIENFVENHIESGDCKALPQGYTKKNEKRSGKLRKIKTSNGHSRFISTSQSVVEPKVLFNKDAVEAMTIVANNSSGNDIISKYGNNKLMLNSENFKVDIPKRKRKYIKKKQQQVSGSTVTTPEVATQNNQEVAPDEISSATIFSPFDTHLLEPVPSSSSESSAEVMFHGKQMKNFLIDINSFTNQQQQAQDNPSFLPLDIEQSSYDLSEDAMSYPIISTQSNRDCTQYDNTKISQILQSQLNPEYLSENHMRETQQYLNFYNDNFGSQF
Assay: PBM E-score (8-mer binding enrichment) (E-score (-0.5 to 0.5)); higher = stronger / more preferred TF binding; most listed sequences are background and not binding sites
Conditions: protein concentration: 200 nM; construct: GST-full length
Procedure, shortened: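 Yeast transcription factors, full-length or as DNA-binding domains, were expressed with a GST tag using PURExpress in vitro transcription/translation. At about 100-200 nM they were applied to universal all-10-mer Agilent arrays, double-stranded by primer extension on fresh or once-stripped slides. Fluorescent anti-GST detected bound protein, and masliner normalised the scans. E-scores for ungapped eight-base words, pooled with reverse complements, came from the Universal PBM Analysis Suite.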

Sequence	PBM E-score
TATTGCCA	0.049
GCGCTGGA	-0.012
AGCGTTGG	-0.127
GCTGCCCA	-0.159
AAGATGGA	-0.0599
GCTAATCA	0.141
GAGCACTA	-0.0755
ATCGCAAA	0.262
ATTCGTAC	0.117
AAGAGATA	-0.0543
AAATGTAG	0.0859
TACAATCA	0.15
ACAGCTCC	-0.0705
GATGTTCC	-0.066
ACGTCAAC	0.0286
TACTCCAA	-0.145
CTTCAGTC	-0.227
TCTTCGCA	0.167
AACGAAGG	-0.277
CGTGCTAA	0.0353
CCATTTGA	0.039
ACCCTCCC	-0.143
AATCTTGT	0.0987
GTCGCAGA	0.0742
GATCGACA	0.013

Sequence	PBM E-score
AGTCTAGA	-0.201
TCCAAGGA	-0.105
GATCAGGC	-0.132
ATTGAGTG	0.213
CCGCGGAG	0.0416
CAGACATA	0.189
CCTTCAGC	-0.211
GTCTTCAA	-0.206
ATACATCA	-0.074
ACTAGCGA	-0.0319
AAACGGCA	0.467
AATTCGCA	0.111
GGCGTAGA	0.113
CGAGCTCG	0.079
CTAACACC	-0.182
CAGAGGTA	0.062
GGATCCAC	-0.251
GATGCCGC	0.466
GGGCTCAA	0.055
CTAGAATA	0.145
ATACTCGC	-0.0916
GACACTAC	-0.135
CCCTACGG	0.0558
CGCGTAGC	0.132
GATCACGA	-0.182

Sequence	PBM E-score
CTGGGGCC	-0.253
AAACAAGT	0.0921
GCAATGGA	-0.0392
ACTACCGG	-0.257
CGCTAATA	0.13
GTTAAACA	0.114
CTGCCTCA	-0.0442
GATTAGCA	-0.0596
TCGCAACA	0.0221
ATTGACCA	-0.14
AAGTGGCA	0.216
GATGCCCC	-0.129
AGCCCCGC	0.0297
ACCACGTC	-0.261
CTCTCGTA	-0.17
AGCAGTAC	-0.00747
TGGTCACA	0.171
GGGGAACC	-0.44
AGCAACCT	-0.124
CTGACCAA	-0.0478
GCACCCCC	-0.218
ACCGTGAT	0.019
ACCGGGTG	-0.0524
ACCTGACG	-0.0576
AACAGGTG	-0.023

Sequence	PBM E-score
CCAAATCG	-0.0172
CCTCAGAC	-0.129
GGGGTACA	-0.174
ACAATACC	0.0539
GCAATTCC	0.0563
ATGTTGAG	0.0235
AACTTTGG	0.0575
ACCACATC	-0.00633
ACTGCCCG	-0.0566
TAGGCCCA	-0.239
CTCAAACA	0.15
AAAGTAGG	0.118
AGAGGCTG	-0.122
ACATGTAA	0.215
GCCTTGGA	0.202
AACTCTCT	-0.202
GTTGACTA	-0.139
ACGATAAA	0.077
ACGTCCCT	-0.115
ATATCTGC	0.023
ATATTAAT	0.158
GGCGCTTA	0.285
ATCTAGCA	0.0426
ATTGCACC	-0.0584
CCTTGATA	0.117

Sequence	PBM E-score
TAAATTAA	0.0479
ACGACAAC	0.167
ATGTGAAC	-0.0297
AGCGCTTA	-0.0828
ACCACAGA	-0.201
AAATCGTC	0.0317
AGAGCCAG	-0.231
CATCTCGG	-0.12
ATATGACG	0.0594
ACTGCTTA	-0.11
CACCATTA	0.0175
ACATACTA	0.011
CTCTAGAC	-0.202
ATGAAAAG	-0.0104
AGCCGCAT	0.452
CTAAAGAA	0.112
ACCGCGGG	0.0822
AACCACCA	-0.0463
AACGCTTC	-0.0974
CTACAGAA	0.117
CCTTTGTC	-0.0883
ATCATCGC	0.0579
GAGCTCGA	-0.0351
ATGCCCTC	0.167
AACGGCAC	0.472

Sequence	PBM E-score
CTCCGAAG	-0.198
CAGAAATA	-0.0226
GGGTTGAC	-0.116
AAAAGGAG	-0.215
GCATGCCC	-0.00699
ATCCAGTA	-0.0403
AGACGACG	-0.0138
AATTTTTG	0.191
AATCGTGG	0.0275
CCCTCACG	-0.0983
GTGATTTA	0.121
TAGGCACA	0.132
CAGAGATC	-0.131
TCCGGGAA	0.0108
CCCTTGTA	-0.178
GCTCGCAC	0.0108
TGAGGACA	-0.0366
AAGCACGG	0.295
AAGTCAAA	-0.0377
CCCACAGG	-0.271
CCGCTTAG	-0.0179
AAACATTA	-0.0139
CCTACAGC	-0.0585
CGGCCGGA	-0.15
TCTAACCA	0.0771

Sequence	PBM E-score
AACTAAAG	0.0929
AGGGAACA	-0.0555
ACTGAGAT	-0.219
TATCGAAA	0.156
CTTGTCGC	0.166
TACGCATA	0.13
CGAGCACC	-0.238
ACGACGAT	0.0785
GTATCAAC	-0.00913
CAGGATTA	0.103
ATCAAGGG	0.143
AAATATGG	0.0487
CTTGGGCC	0.0832
CCCAAGAC	-0.246
CTCTCGCA	-0.277
AACTGAAA	0.0772
AGACCTTC	-0.195
GCCCATCA	-0.14
CATCTTCA	-0.16
CAGAGATG	0.0502
CCTGACTC	-0.122
TCAATTGA	0.239
GCAAGAAC	0.16
CCAGCGCG	0.0151
CATCGGTC	-0.198

Sequence	PBM E-score
GCGATCCC	-0.172
GCGCCCGC	0.181
AATTCCAC	-0.0125
ACACTCCT	-0.13
AATGATAA	0.133
TATACGAA	0.0856
GGCCAACC	-0.134
GCGGTTGA	-0.0216
GGATTAAA	0.0606
ATTTAGTA	0.191
GGCCAGAC	-0.222
ATCGACGC	0.00148
GCGATACC	-0.162
AGAACTGA	0.157
CCTTAGCA	0.0632
ATGGGGCG	0.264
TCTGGCCA	-0.147
GCGCAAAA	0.227
AAATGTGG	0.14
ACTGGCAA	-0.108
ACCGTAAA	0.0391
AAACGTAT	0.214
AGGTCGAC	-0.286
AGGCGGCC	0.147
AGACCACC	-0.245

Sequence	PBM E-score
ACTTGCAC	-0.0792
GGACCCCC	-0.45
GAGCGCGC	0.237
AAGTTCAT	0.00541
CACGTTGC	0.093
AGGGAGTA	-0.31
GCTAGTTA	0.0852
AAGGGTAG	-0.207
CCTTCAAG	0.0118
AGCACGAT	0.118
CATCCAAG	-0.181
AGACCCCC	-0.393
ATCTATTA	0.0812
ATGTATGG	-0.0194
CCCCTGAA	-0.017
AGCGCGGA	0.0636
CTTTGCCC	-0.0335
ACGCACTA	-0.131
CAGTCTGG	-0.218
